About 4,300 (8.3%) of roughly 52,000 compounds were called active. No stated cut-off is given here; in the data, active means survival mostly below about 52% (no sharp cut-off); inactive means mostly above about 56%. The list shows a part of the results.

The assay has as its system DeltatarO mutant. The assay is described as follows: growth inhibition of S. aureus wild type versus tarO mutant, primary screen, teichoic acid synthesis inhibitors, RN4220, OD600 (AID 463173). The settings on record: OD600, 18 h, hits give low values, screened at 18.75 µg/mL (by protocol).
Turning to `O=C(c1ccc2c(c1)N(Cc1ccccc1)C(=O)c1ccccc1S2(=O)=O)N1CCN(c2ccccc2)CC1`, the survival was inactive: 119%.
Turning to `COc1ccc(OC)c(C2NC(=O)NC(C)=C2C(=O)Nc2cc(C)cc(C)c2)c1` (configuration not stated), the survival was inactive: 47%.
As for `CCOC(=O)C1(C)C=C(Nc2ccc(Br)cc2)C(=O)N1c1ccccc1` (configuration not stated), the survival was inactive: 65%.
Under `CC(C)c1cc(C(=O)O)on1` stands inactive: 102%.
For `CS(=O)(=O)NCc1ccc2c(c1)OCO2` the value was inactive: 92%.
For `Cc1ccc(NC(=O)CSc2nc(C)c(Cc3ccccc3)c(=O)[nH]2)cc1C` the value was inactive: 84%; for `CC(C)Oc1ccc(C(=O)Nc2ccc3c(c2)CCCN3C(=O)c2cccs2)cc1`, inactive: 58%; for `CCC(Sc1nc2ccccc2c2nc(CCn3cncc3C)nn12)C(=O)Nc1cccc(OC)c1` (configuration not stated), inactive: 89%.
In the case of `CCC1CCCCN1CCCNC(=O)CN1C(=O)c2cccnc2Oc2ccc(Cl)cc21` (configuration not stated), the survival was inactive: 91%.
For `O=C(Cn1cc(SCc2ccc(C(F)(F)F)cc2)c2ccccc21)N1CCCCCC1`, the survival was inactive: 79%.
For `COc1ccc(Cn2c(CNC(=O)c3ccc(N(C)C)cc3)nc3cccnc32)cc1` the value was inactive: 81%; for `O=C(Nc1c(C(=O)N2CCN(c3ccc(F)cc3)CC2)oc2ccccc12)c1c(F)cccc1F`, inactive: 95%.
Under `Cc1nnc(NC(=O)CSc2nc3c([nH]c4ccccc43)c(=O)n2-c2ccccc2)s1` stands inactive: 88%; under `CCc1ccc2c(c1)c1nnc(SCC(=O)c3ccc(OC)cc3)nc1n2C`, inactive: 88%.
Consider `COc1ccc(C2CC(=O)c3cc(-c4nc(-c5cccc([N+](=O)[O-])c5)cs4)c(=O)n(-c4ccc(C)c(C)c4)c3C2)cc1` (configuration not stated), for which the survival was inactive: 156%.
For `CCCN1C(=O)c2[nH]nc(-c3ccccc3O)c2C1c1ccc(OCc2ccccc2)c(OCC)c1` (configuration not stated) the value was active: 40%.
Under `Cc1ccc(Cl)cc1NC(=O)CN1C(=O)c2cccc3cccc1c23` stands inactive: 63%; under `COc1ccc(C)c2sc(N(Cc3cccnc3)C(C)=O)nc12`, inactive: 80%; under `CCc1ccc(NC(=O)C2CCC(CNS(=O)(=O)c3ccc4c(c3)CC(C)N4C(C)=O)CC2)cc1` (configuration not stated), inactive: 87%.
Under `COc1ccc(-c2nc3ccccc3s2)cc1NC(=O)COc1ccccc1C` stands inactive: 142%; under `COc1ccccc1OCCn1c(NC(=O)c2ccc(Cl)cc2)nc2ccccc21`, active: 45%; under `C=CCN(CC=C)C(=O)C1CCN(Cc2cc(Br)c(O)c(OC)c2)CC1`, inactive: 100%.
For `C=CCNc1nc(-c2ccccc2)cs1`, the survival is inactive: 97%.
Under `Fc1ccc(Nc2nc3ccccc3c3nncn23)c(Cl)c1` stands inactive: 99%; under `Cc1cc(C)c2nc(N3CCCC(C(=O)NCc4cccc(Br)c4)C3)sc2c1` (configuration not stated), inactive: 66%.
Under `Cc1ccc2oc(=O)c3cc(C(=O)Nc4ccc(F)cc4F)sc3c2c1` stands inactive: 79%; under `COc1ccc(CCNC(=O)c2ccc(Cn3c(=O)c4ccccc4n(Cc4cc(C)ccc4C)c3=O)cc2)cc1OC`, inactive: 75%.
Turning to `Cc1ccc(NC(=O)c2oc3ccc(S(=O)(=O)N4CCCCCC4)cc3c2C)cc1Cl`, the survival is inactive: 86%.
For `CCOC(=O)c1ccc(N2CCN(c3ccccc3F)CC2)c(NC(=O)Nc2ccc(Cl)c(Cl)c2)c1`, the survival is inactive: 65%.
For `CC(C)CSc1nnc(-c2ccccc2)c(-c2ccccc2)n1` the value was active: -8%; for `O=C(Nc1cccc(Cl)c1)c1cc(-c2ccc3c(c2)OCCO3)on1`, inactive: 103%; for `Cc1cccc(N(C)C(CNS(=O)(=O)c2ccccc2)c2ccccc2)c1` (configuration not stated), inactive: 100%.
Take `Cc1cccc(C(=O)Nc2cccc(OCc3cc(=O)n4cccc(C)c4n3)c2)c1`: the survival is inactive: 92%.
For `Cc1ccc(C)c(Nc2nc(-c3ccccc3)c3cc(Br)ccc3n2)c1`, the survival was active: 43%.
For `COC(=O)c1cccc(Cn2nnc3sc4c(c3c2=O)CCC(C(C)(C)C)C4)c1` (configuration not stated) the value was inactive: 68%; for `O=C(COc1ccccc1)NCCc1csc(-c2cccc(F)c2)n1`, inactive: 78%; for `Cc1ccc[n+](Cc2cnc(C)nc2N)c1`, inactive: 83%.
Under `COc1ccc(CCNC(=O)CCCCn2c(=O)c3ccccc3n(CC(=O)Nc3ccc(C)cc3C)c2=O)cc1OC` stands inactive: 96%; under `O=C(CSc1ncn[nH]1)n1c2ccccc2c2ccccc21`, inactive: 70%.
Under `O=C(c1cccs1)N1CCCn2c1nc1ccccc12` stands inactive: 90%; under `N#Cc1cccc(NC(=O)Cn2nc(Cc3ccncc3)c3ccccc3c2=O)c1`, inactive: 123%; under `CCN1C(=O)C(Cc2nc3ccccc3c(=O)n2-c2ccc(OC)cc2)c2cc(C)ccc21` (configuration not stated), inactive: 81%.
On to `Cc1cc(C)n(C2CC(=O)N(N(C)C)C2=O)n1` (configuration not stated), for which the survival is inactive: 92%.
In the case of `Cn1nnnc1SCCNCc1ccc(OCc2ccccc2Cl)cc1`, the survival is inactive: 102%.
For `CC(NC(=O)c1ccc(NC(=O)c2nsc3ccccc23)cc1)c1ccccc1` (configuration not stated) the value was inactive: 84%; for `Cc1ccc(N(C)S(=O)(=O)c2ccc3[nH]c4c(c3c2)CCCC4)cc1`, inactive: 67%; for `COc1ccccc1N1CCN(CC(=O)N2CCCC2)CC1`, inactive: 83%.
For `O=C(COc1ccccc1)NCc1ccc2c(c1)CCN2C(=O)c1ccccc1`, the survival is inactive: 76%.
Turning to `N#CN=C(N)CSc1nc(-c2ccccc2)cc(-c2ccccc2)c1C#N`, the survival was inactive: 56%.
For `Cc1cc(Sc2ccc(Cl)cc2)nc2ccccc12` the value was inactive: 45%; for `O=C(CSc1ccccc1)NCc1ccc2c(c1)CCN2C(=O)c1ccc(Cl)cc1`, inactive: 86%; for `CC(C)(C)OC(=O)N1CCC(c2c(C(=O)NC3CCCCC3)cnn2-c2cccc(F)c2)CC1`, inactive: 128%.
For `CCOC(=O)c1ccc(NC(=O)CC2C(=O)N(c3ccc(C)cc3)C(=O)N2C2CCCCC2)cc1` (configuration not stated) the value was inactive: 88%; for `Cc1cc(C(F)(F)F)nn1-c1nc(-c2ccccc2)cc(C(F)(F)F)n1`, active: 17%.
For `Cc1cc(=O)n(CC(=O)Nc2ccc([N+](=O)[O-])cc2)c(-n2nc(C)cc2C)n1` the value was inactive: 72%; for `COc1ccc(CCN2C(=O)c3[nH]nc(-c4ccccc4O)c3C2c2cccc(OC)c2)cc1` (configuration not stated), inactive: 66%; for `Cc1ccccc1NC(=O)Cn1c(=O)n(CCc2ccccc2)c(=O)c2sc3ccccc3c21`, inactive: 76%.
`Cc1[nH]c2ccccc2c1C(c1ccccc1)c1cccs1` (configuration not stated): the survival was active: 7%.
Under `Clc1ccc(OCc2nc3ccccc3[nH]2)cc1` stands inactive: 104%; under `Cc1cccc(NC(=O)c2sc3nc4c(cc3c2N)CCCCCC4)c1C`, inactive: 134%.
For the compound `COC(=O)c1c(NC(=O)Cc2coc3ccc(C)cc23)sc2c1CCC2`, the survival was inactive: 59%.
For `COc1ccc(-n2nc(C(=O)Nc3ccc(Cl)cn3)c3c4ccccc4n(C)c3c2=O)cc1Cl` the value was inactive: 88%; for `Cc1ccc(NC(=O)CSc2c3c(nc4ccccc24)CCCC3)cc1F`, active: 30%.
For `Cc1ccc(CCNC(=O)c2cc(Nc3ccc(C)c(C)c3)nc3ccccc23)cc1` the value was inactive: 74%; for `CC(C)C1C(=O)Nc2ccc(S(=O)(=O)NCc3ccc(Cl)cc3)cc21` (configuration not stated), active: 52%; for `Cc1cc(F)ccc1-n1nnc(C(N)=O)c1C`, inactive: 76%.
For `Cc1ccccc1Nc1c(-c2cccc(N(C)C)c2)nc2ccc(Br)cn12` the value was inactive: 98%; for `CC(=O)c1cccc(NC(=O)c2c(-c3ccccc3)c(-c3ccccc3)nn(C)c2=O)c1`, inactive: 57%; for `CN(Cc1ccccc1)c1ccc(-c2nc(-c3ccco3)no2)cc1[N+](=O)[O-]`, inactive: 52%.
On to `O=C(c1ccccc1Cl)N(Cc1ccco1)Cc1ccco1`, for which the survival was inactive: 60%.
For `COc1ccc(-c2noc(-c3ccc(N4CCN(c5ccc(OC)cc5)CC4)c([N+](=O)[O-])c3)n2)cc1` the value was inactive: 47%.
Consider `O=C(Cc1nc2ccccc2[nH]1)N1CCCC1`, for which the survival is inactive: 84%.
Under `CCOc1ccc(-n2nc(CO)c(C(=O)NCc3cccnc3)n2)cc1` stands active: 44%.
Regarding `Cc1cccn2c(=O)c(C(=O)NCc3ccccc3Cl)c(O)nc12`, the survival is inactive: 65%.
For `COc1cccc(N2CCN(C(=O)c3cc4c(=O)n(Cc5ccccc5)ccc4nc3C)CC2)c1` the value was inactive: 104%.
Take `COc1cc(C)ccc1OCCCn1c(-c2ccc(Cl)cc2)nc2ccccc2c1=O`: the survival was inactive: 62%.
Take `Cc1ccc(NC(=O)CC2SC3=NCCN3C2=O)cc1` (configuration not stated): the survival was inactive: 85%.
Under `Cc1cccc(-n2c(SCc3nc(-c4ccccc4C)no3)nnc2-c2ccccc2)c1` stands inactive: 74%.
Under `CN1CCN(c2oc(/C=C/c3ccc(F)cc3)nc2C#N)CC1` stands inactive: 76%; under `CC(C)S(=O)(=O)c1oc(-c2ccc(F)cc2)nc1S(=O)(=O)c1ccccc1`, active: 33%.
On to `OC(CN1CCOCC1)Cn1c2ccccc2c2ccccc21` (configuration not stated), for which the survival is inactive: 94%.
For `COc1cc(NC(=O)c2nn(-c3ccc(C)cc3)c(=O)c3c2c2ccccc2n3C)cc(OC)c1OC` the value was inactive: 80%.
For the compound `CCOC(=O)c1ccccc1NS(=O)(=O)c1ccc(N2CCCCS2(=O)=O)cc1`, the survival is inactive: 90%.
Under `CCc1nn(CC(=O)NC(C)CC)c(=O)c2cc3c(OC)cccc3n12` (configuration not stated) stands inactive: 128%; under `Cc1ccc(C)c(N2CCN(S(=O)(=O)c3ccc(-c4cc(C(F)(F)F)on4)s3)CC2)c1`, inactive: 88%; under `Nc1cc[n+](CC(O)CO)cc1` (configuration not stated), inactive: 65%.
Consider `Cc1nc(Nc2nc3ccccc3o2)nc(-c2ccc(Cl)cc2)c1C#N`, for which the survival was inactive: 71%.
Regarding `Cc1ccsc1CN(Cc1ccco1)C(=O)c1ccc(Cl)cc1`, the survival is active: 34%.
For `O=C(Nc1cc(C(F)(F)F)ccc1Cl)c1cc(-c2cccs2)nc2ccccc12`, the survival was inactive: 86%.
As to `Cc1cc(C)n(C(=O)CNC(=O)Cc2ccccc2)n1`, the survival was inactive: 89%.
As to `Cc1cc(C)c(S(=O)(=O)NCCc2sc(-c3cccnc3)nc2C)c(C)c1`, the survival was inactive: 117%.
Under `COc1ccc(-c2ccc(/C=N/NC(N)=O)o2)cc1` stands inactive: 110%.
